Experimental data taken from US11618753B2 (priority 2018, dated 2023).

Each molecule was assayed on MLKL phosphorylation, HT29-L23 human colorectal adenocarcinoma cells (assay: cells). Details: read-out: pMLKL HCS Cell Assay (IC50, uM).

Row | SMILES | IC50
1 | COc1ncc(-c2cc(CN3CCCC3)c3c(N)ncnn23)cc1C(=O)N[C@@H]1CN(C(=O)C2CC(F)(F)C2)C[C@@H]1F [Example 1549, 5-(4-amino-5-(pyrrolidin-1-ylmethyl)pyrrolo[2,1-f][1,2,4]triazin-7-yl)-N-((3R,4S)-1-(3,3-difluorocyclobutane-1-carbonyl)-4-fluoropyrrolidin-3-yl)-2-methoxynicotinamide] | 0.0012 µM
2 | COc1ncc(-c2c(C#N)cc3c(N)ncnn23)cc1C(=O)N[C@@H]1CN(C(=O)C(C)(C)F)C[C@@H]1F [Example 561, 5-(4-amino-6-cyanopyrrolo[2,1-f][1,2,4]triazin-7-yl)-N-((3R,4S)-4-fluoro-1-(2-fluoro-2-methylpropanoyl)pyrrolidin-3-yl)-2-methoxynicotinamide] | 0.271 µM
3 | COc1ncc(-c2cc(C(F)(F)F)c3c(N)ncnn23)cc1C(=O)N[C@@H]1CN(C(=O)OC2CC(F)(F)C2)C[C@@H]1F [Example 1454, 3,3-difluorocyclobutyl (3R,4S)-3-{5-[4-amino-5-(trifluoromethyl)pyrrolo[2,1-f][1,2,4]triazin-7-yl]-2-methoxypyridine-3-amido}-4-fluoropyrrolidine-1-carboxylate] | 0.0068 µM
4 | Nc1ncnn2c(-c3cccc(C(=O)N[C@@H]4CN(C(=O)c5ccccc5F)C[C@@H]4F)c3F)cc(C(F)(F)F)c12 [Example 767, 3-[4-amino-5-(trifluoromethyl)pyrrolo[2,1-f][1,2,4]triazin-7-yl]-2-fluoro-N-[(3R,4S)-4-fluoro-1-(2-fluorobenzoyl)pyrrolidin-3-yl]benzamide] | 0.025 µM
5 | Nc1ncnn2c(-c3cncc(C(=O)N4CCOC(Cc5ccccc5)C4)c3)cc(C(F)(F)F)c12 (stereo not shown) [Example 287, 7-[5-(2-benzylmorpholine-4-carbonyl)pyridin-3-yl]-5-(trifluoromethyl)pyrrolo[2,1-f][1,2,4]triazin-4-amine] | 0.02 µM
6 | COc1ncc(-c2cc(C(F)(F)F)c3c(N)ncnn23)cc1C(=O)NCC[C@@H](OC)c1ccc(Cl)cc1 [Example 28, 5-[4-amino-5-(trifluoromethyl)pyrrolo[2,1-f][1,2,4]triazin-7-yl]-N-[(3R)-3-(4-chlorophenyl)-3-methoxypropyl]-2-methoxypyridine-3-carboxamide] | 0.0031 µM
7 | Cc1ncc(-c2cc(C(F)(F)F)c3c(N)ncnn23)cc1C(=O)N[C@@H]1CN(C(=O)C(C)C(F)(F)F)C[C@@H]1F (stereo partly drawn) [Example 1235, 5-[4-amino-5-(trifluoromethyl)pyrrolo[2,1-f][1,2,4]triazin-7-yl]-N-[(3R,4S)-4-fluoro-1-(3,3,3-trifluoro-2-methylpropanoyl)pyrrolidin-3-yl]-2-methylpyridine-3-carboxamide] | 0.0077 µM
8 | COc1ncc(-c2cc(C(F)(F)F)c3c(N)ncnn23)cc1C(=O)N[C@@H]1CN(C(=O)CC(C)C(F)(F)F)C[C@@H]1F (stereo partly drawn) [Example 1221, 5-[4-amino-5-(trifluoromethyl)pyrrolo[2,1-f][1,2,4]triazin-7-yl]-N-[(3R,4S)-4-fluoro-1-(4,4,4-trifluoro-3-methylbutanoyl)pyrrolidin-3-yl]-2-methoxypyridine-3-carboxamide] | 0.0039 µM
9 | CC#CC(=O)N1C[C@H](F)[C@H](NC(=O)c2cc(-c3cc(C(F)(F)F)c4c(N)ncnn34)cnc2OC)C1 [Example 1672, 5-(4-amino-5-(trifluoromethyl)pyrrolo[2,1-f][1,2,4]triazin-7-yl)-N-((3R,4S)-1-(but-2-ynoyl)-4-fluoropyrrolidin-3-yl)-2-methoxynicotinamide] | 0.055 µM
10 | CCC(O)(C(=O)N1C[C@H](F)[C@H](NC(=O)c2cc(-c3cc(C(F)(F)F)c4c(N)ncnn34)cc(F)c2OC)C1)C(F)(F)F (stereo partly drawn) [Example 692, 5-[4-amino-5-(trifluoromethyl)pyrrolo[2,1-f][1,2,4]triazin-7-yl]-3-fluoro-N-[(3R,4S)-4-fluoro-1-[2-hydroxy-2-(trifluoromethyl)butanoyl]pyrrolidin-3-yl]-2-methoxybenzamide] | 0.015 µM
11 | COc1ncc(-c2cc(C(F)(F)F)c3c(N)ncnn23)cc1C(=O)N[C@@H]1CN(C(=O)OC[C@H](C)O)C[C@@H]1F [Example 1451, (2S)-2-hydroxypropyl (3R,4S)-3-{5-[4-amino-5-(trifluoromethyl)pyrrolo[2,1-f][1,2,4]triazin-7-yl]-2-methoxypyridine-3-amido}-4-fluoropyrrolidine-1-carboxylate] | 0.099 µM
12 | Nc1ncnn2c(-c3ccc(CF)c(C(=O)N[C@@H]4CN(C(=O)c5ccccc5F)C[C@@H]4F)c3)cc(C(F)(F)F)c12 [Example 913, 5-[4-amino-5-(trifluoromethyl)pyrrolo[2,1-f][1,2,4]triazin-7-yl]-N-[(3R,4S)-4-fluoro-1-(2-fluorobenzoyl)pyrrolidin-3-yl]-2-(fluoromethyl)benzamide] | 0.0028 µM
13 | [2H]C([2H])([2H])Oc1ncc(-c2cc(CN3CC(F)(F)C3)c3c(N)ncnn23)cc1C(=O)N[C@@H]1CN(S(=O)(=O)CCc2ccccc2)C[C@@H]1F [Example 1297, 5-{4-amino-5-[(3,3-difluoroazetidin-1-yl)methyl]pyrrolo[2,1-f][1,2,4]triazin-7-yl}-N-[(3R,4S)-4-fluoro-1-(2-phenylethanesulfonyl)pyrrolidin-3-yl]-2-(methoxy-d3)nicotinamide] | 0.0091 µM
14 | COc1ncc(-c2cc(C(F)(F)F)c3c(N)ncnn23)cc1C(=O)NC1CN(CCCC(F)(F)F)CC1F (racemic) [Example 198, 5-[4-amino-5-(trifluoromethyl)pyrrolo[2,1-f][1,2,4]triazin-7-yl]-N-[4-fluoro-1-(4,4,4-trifluorobutyl)pyrrolidin-3-yl]-2-methoxypyridine-3-carboxamide] | 0.014 µM
15 | Nc1ncnn2c(-c3ccc(Cl)c(C(=O)N[C@@H]4CN(C(=O)C5CC(F)C5)C[C@@H]4F)c3)cc(C(F)(F)F)c12 (stereo partly drawn) [Example 925, 5-[4-amino-5-(trifluoromethyl)pyrrolo[2,1-f][1,2,4]triazin-7-yl]-2-chloro-N-[(3R,4S)-4-fluoro-1-(3-fluorocyclobutanecarbonyl)pyrrolidin-3-yl]benzamide] | 0.0051 µM
16 | COc1ccc(-c2cc(C(F)(F)F)c3c(N)ncnn23)cc1C(=O)NCCC(C)c1ccccc1 (racemic) [Example 160, 5-[4-amino-5-(trifluoromethyl)pyrrolo[2,1-f][1,2,4]triazin-7-yl]-2-methoxy-N-(3-phenylbutyl)benzamide] | 0.012 µM
17 | Cc1ncc(-c2cc(C(F)(F)F)c3c(N)ncnn23)cc1C(=O)N1CCCC(C(O)c2ccc(F)cc2)C1 (single isomer, unassigned) [Example 1728, (5-(4-amino-5-(trifluoromethyl)pyrrolo[2,1-f][1,2,4]triazin-7-yl)-2-methylpyridin-3-yl)(3-((4-fluorophenyl)(hydroxy)methyl)piperidin-1-yl)methanone] | 0.025 µM
18 | Cc1ccc(-c2cc(C(F)(F)F)c3c(N)ncnn23)cc1C(=O)N[C@@H]1CN(C(=O)C(C)(C)F)C[C@@H]1F [Example 1000, 5-[4-amino-5-(trifluoromethyl)pyrrolo[2,1-f][1,2,4]triazin-7-yl]-N-[(3R,4S)-4-fluoro-1-(2-fluoro-2-methylpropanoyl)pyrrolidin-3-yl]-2-methylbenzamide] | 0.0054 µM
19 | COc1ncc(-c2cc(C(F)(F)F)c3c(N)ncnn23)cc1C(=O)Nc1cn(C(c2ccccc2)C(F)(F)F)cn1 (stereo not shown) [Example 1798, 5-(4-amino-5-(trifluoromethyl)pyrrolo[2,1-f][1,2,4]triazin-7-yl)-2-methoxy-N-(1-(2,2,2-trifluoro-1-phenylethyl)-1H-imidazol-4-yl)nicotinamide] | 0.015 µM
20 | COc1ncc(-c2cc(C(F)(F)F)c3c(N)ncnn23)cc1C(=O)N[C@@H]1CN(S(=O)(=O)Cc2c(Cl)cccc2Cl)C[C@@H]1F [Example 1492, 5-[4-amino-5-(trifluoromethyl)pyrrolo[2,1-f][1,2,4]triazin-7-yl]-N-[(3R,4S)-1-[(2,6-dichlorophenyl)methanesulfonyl]-4-fluoropyrrolidin-3-yl]-2-methoxypyridine-3-carboxamide] | 0.0076 µM
21 | COc1ncc(-c2c(C#N)cc3c(N)ncnn23)cc1C(=O)NCC[C@H](O)c1ccc(Cl)cc1 [Example 546, (S)-5-(4-amino-6-cyanopyrrolo[2,1-f][1,2,4]triazin-7-yl)-N-(3-(4-chlorophenyl)-3-hydroxypropyl)-2-methoxynicotinamide] | 0.107 µM
22 | Nc1ncnn2c(-c3cc(F)cc(C(=O)N[C@@H]4CN(C(=O)C5CC5(F)F)C[C@@H]4F)c3)cc(C(F)(F)F)c12 (stereo partly drawn) [Example 608, 3-[4-amino-5-(trifluoromethyl)pyrrolo[2,1-f][1,2,4]triazin-7-yl]-N-[(3R,4S)-1-(2,2-difluorocyclopropanecarbonyl)-4-fluoropyrrolidin-3-yl]-5-fluorobenzamide] | 0.017 µM
23 | Cc1ccc(-c2cc(C(F)(F)F)c3c(N)ncnn23)cc1C(=O)N[C@@H]1CN(C(=O)c2cccc(F)c2F)C[C@@H]1F [Example 1039, 5-[4-amino-5-(trifluoromethyl)pyrrolo[2,1-f][1,2,4]triazin-7-yl]-N-[(3R,4S)-1-(2,3-difluorobenzoyl)-4-fluoropyrrolidin-3-yl]-2-methylbenzamide] | 0.00078 µM
24 | COc1ncc(-c2cc(C(F)(F)F)c3c(N)ncnn23)cc1C(=O)N[C@@H]1CN(C(=O)NC(C)(C)C)C[C@@H]1F [Example 1838, 5-(4-amino-5-(trifluoromethyl)pyrrolo[2,1-f][1,2,4]triazin-7-yl)-N-((3R,4S)-1-(tert-butylcarbamoyl)-4-fluoropyrrolidin-3-yl)-2-methoxynicotinamide] | 0.105 µM
25 | [2H]C([2H])([2H])Oc1nc(C)c(-c2cc(C(F)(F)F)c3c(N)ncnn23)cc1C(=O)N[C@@H]1CN(C(=O)[C@@](C)(O)C(F)(F)F)C[C@@H]1F [Example 517, 5-[4-amino-5-(trifluoromethyl)pyrrolo[2,1-f][1,2,4]triazin-7-yl]-N-[(3R,4S)-4-fluoro-1-[(2R)-3,3,3-trifluoro-2-hydroxy-2-methylpropanoyl]pyrrolidin-3-yl]-2-(deutero)methoxy-6-methylpyridine-3-carboxamide] | 0.011 µM
